From PubChem BioAssay AID463173 (ICCB-Longwood Screening Facility, Harvard Medical School, 2010)
The whole screen tested about 52,000 compounds, of which about 4,300 (8.3%) were called active. No stated cut-off is given here; in the data, active means survival mostly below about 52% (no sharp cut-off); inactive means mostly above about 56%. The list shows a part of the results.

These compounds were tested on DeltatarO mutant (assay: growth inhibition of S. aureus wild type versus tarO mutant, primary screen, teichoic acid synthesis inhibitors, RN4220, OD600 (AID 463173)). Conditions: OD600, 18 h, stronger effect = lower value, screened at 18.75 µg/mL (by protocol).
For CCC(C)(C)n1nnnc1C(c1ccc(Cl)cc1)N1CCN(c2nc3ccccc3s2)CC1 (stereo unspecified), the survival was inactive: 90%.
Cc1ccc(CN2C(=O)C3(c4ccccc42)N(c2ccc(C)c(Cl)c2)C(=O)CS3(=O)=O)cc1 (stereo unspecified) was tested, and the survival was inactive: 54%.
For CCc1nc2sc3c(N4CCCCC4)ncnc3c2c2c1CCCC2, the survival was inactive: 175%.
COc1cccc(/C=C(\C#N)C(=O)Nc2ccc(NC(C)=O)cc2)c1OC was tested, and the survival was inactive: 89%.
In the case of COc1ccc(NC(=O)CSc2cn(CCNC(=O)c3ccc(OC)cc3)c3ccccc23)cc1, the survival is reported as inactive: 69%.
With CC(C)(C)c1ccc(-c2nnc(-c3ccccc3NC(=O)c3cccc(C(F)(F)F)c3)o2)cc1 the survival was inactive: 69%.
For CCCN1C(=O)C(Cc2nc3ccccc3c(=O)n2CC)c2cc(Br)ccc21 (stereo unspecified), the survival was active: 34%.
Cc1ccc2[nH]cc(C(=O)N3CCCCC3)c(=O)c2c1 was tested, and the survival was inactive: 89%.
In the case of Cc1sc(NC(=O)Nc2ccccc2)c(C(N)=O)c1C, the survival is reported as inactive: 105%.
CC(C)CC1CC(C)(C(=O)CSc2n[nH]c(-c3ccccc3)n2)OC1=O (stereo unspecified) was tested, and the survival was inactive: 80%.
For OCCNc1nc(N2CCOCC2)ncc1F, the survival was inactive: 100%.
With Cc1ccc(C)c(Cn2c(=O)n(Cc3ccccc3)c(=O)c3sc4ccccc4c32)c1 the survival was inactive: 76%.
With CC1=C(C(=O)Nc2ccccc2)C(c2ccc(O)cc2)n2nc(-c3ccc(Cl)cc3)nc2N1 (stereo unspecified) the survival was inactive: 51%.
For Cc1oc2ccc(O)c(CN3CCC(C)CC3)c2c1C(=O)Nc1ccccc1, the survival was inactive: 72%.
In the case of COc1ccc2c(c1)NC(c1ccc(Cl)cc1)=NC(c1cccs1)=N2, the survival is reported as inactive: 61%.
Cc1ccc(S(=O)(=O)NCCSc2nnnn2-c2ccccc2)cc1 was tested, and the survival was inactive: 71%.
In the case of CCn1c(CN2CCCCC2)nc2cc(NC(=O)COc3ccc(C(C)(C)C)cc3)ccc21, the survival is reported as inactive: 93%.
In the case of CCc1ccc(S(=O)(=O)NCCc2csc3nc(-c4ccccc4)nn23)s1, the survival is reported as inactive: 109%.
In the case of CC(C)(C)c1ccc(-c2nc3cc(NC(=O)c4cccc(Br)c4)ccc3o2)cc1, the survival is reported as inactive: 73%.
COc1cccc(CNC(=O)Cn2ncc3c4ccccc4n(Cc4ccccc4)c3c2=O)c1 was tested, and the survival was inactive: 100%.
COc1ccc(-n2ccn(CC(=O)NCCc3ccccc3)c(=O)c2=O)cc1OC was tested, and the survival was inactive: 109%.
In the case of COc1cccc(C(=O)NCc2nc(-c3ccccc3)no2)c1OC, the survival is reported as active: 43%.
For Cc1ccc(OC(=O)C23CC4CC(CC(C4)C2)C3)cn1, the survival was inactive: 107%.
In the case of CCC1CCCCN1C(=O)c1ccccc1F (stereo unspecified), the survival is reported as inactive: 97%.
In the case of CCOc1ccccc1CNC(=O)c1cnc2sc(N3CCCCCC3)nn2c1=O, the survival is reported as inactive: 83%.
For CCOc1ccccc1NC(=O)c1c(NC(=O)c2ccccc2)sc2c1CCCC2, the survival was inactive: 58%.
With CCc1ccc(Oc2c(C(F)(F)F)oc3c(CN4CCN(C)CC4)c(O)ccc3c2=O)cc1 the survival was inactive: 127%.
In the case of O=C(Cn1cc(SCc2cccc(Cl)c2)c2ccccc21)N1CCCCCC1, the survival is reported as inactive: 74%.
With CCOC(=O)C1(C)NC(c2ccc(F)cc2)C2C(=O)N(CC)C(=O)C21 (stereo unspecified) the survival was inactive: 82%.
In the case of O=C(Cn1c(=O)n(Cc2ccc3c(c2)OCO3)c(=O)c2oc3ccccc3c21)Nc1ccc(F)cc1, the survival is reported as inactive: 85%.
With Cc1cccc(NC(=O)CCc2c(C)nc3nc(CNC(=O)c4cccc(F)c4)nn3c2C)c1 the survival was inactive: 81%.
With CC(=O)Nn1c(C)nc2ccccc2c1=O the survival was inactive: 75%.
In the case of CCN(CC)C1=CC(=O)OC12CCCCC2, the survival is reported as inactive: 107%.
COc1ccc(Cn2c(SCc3ccc(C(=O)NC4CCCC4)cc3)nc3cccnc32)cc1 was tested, and the survival was inactive: 69%.
For Cc1ccc(NC(=O)c2ccc(=O)n(CC(=O)Nc3cccc(C)c3)n2)cc1, the survival was inactive: 72%.
With Cc1cccc(C(c2sc3nc(-c4ccco4)nn3c2O)N2CCN(c3ccccc3)CC2)c1 (stereo unspecified) the survival was inactive: 76%.
Cc1ccc(NC(=O)c2ccc(NC(=O)N3CCSc4nc(C)cc(C)c43)cc2)c(Cl)c1 was tested, and the survival was inactive: 119%.
O=C(Cn1nc2c(cc1=O)CCCC2)Nc1ccccc1C(F)(F)F was tested, and the survival was inactive: 102%.
For COC(=O)c1ccccc1NC(=O)c1cc2nc(-c3ccc(OC)cc3)cc(C(F)(F)F)n2n1, the survival was active: 36%.
With O=C(CSc1nnc2c(n1)[nH]c1ccccc12)Nc1ccccc1 the survival was inactive: 89%.
In the case of CCn1cc(CNC(=O)c2cc(-c3ccc(C)c(C)c3)nc3ccccc23)c(C)n1, the survival is reported as inactive: 123%.
In the case of CC1CCCCN1C(=O)Cn1c(SCC(=O)N(C)c2ccccc2)nc2ccccc21 (stereo unspecified), the survival is reported as inactive: 54%.
With COC(=O)/C(=C\c1c[nH]c2ccccc12)NC(C)=O the survival was inactive: 77%.
For COC(=O)C1CCN(C(=O)c2ccc(NC(C)=O)cc2)CC1, the survival was inactive: 94%.
With CCC(=O)NCc1cc(-c2nn(C)c(=O)c3ccccc23)ccc1OC the survival was inactive: 57%.
In the case of CCn1cc2nc(SCC(=O)Nc3ccc(C)cc3C)n(Cc3ccc(C)cc3)c(=O)c2n1, the survival is reported as inactive: 124%.
Cc1ccc(C)c(NC(=O)c2ccc3nc(CCc4ccccc4)oc3c2)c1 was tested, and the survival was inactive: 55%.
In the case of O=C(CSc1n[nH]c(-c2ccccc2Cl)n1)N1CCN(c2ccccc2)CC1, the survival is reported as inactive: 94%.
For CCOC(=O)CNS(=O)(=O)c1cc(-c2nnc(Nc3cccc(O)c3)c3ccccc23)ccc1C, the survival was active: 39%.
In the case of C=CCN1Cc2c(sc3c2CCCC3)N(C(=O)c2ccccc2)C1, the survival is reported as inactive: 87%.
In the case of CCCc1ccc(C2Sc3ccccc3NC3=C2C(=O)c2ccccc23)cc1 (stereo unspecified), the survival is reported as inactive: 94%.
For O=C(CSc1nc(-c2ccc(F)cc2)[nH]c1-c1ccccc1)NCC1CCCO1 (stereo unspecified), the survival was inactive: 82%.
With COc1ccc(-c2nnc(SCC(=O)NCc3ccc(C)cc3)nc2-c2ccc(OC)c(OC)c2)cc1OC the survival was inactive: 76%.
CCCCOc1cccc(C2c3c(oc4ccccc4c3=O)C(=O)N2c2ccccn2)c1 (stereo unspecified) was tested, and the survival was inactive: 73%.
CCS(=O)(=O)N1CCC(n2c(C(F)(F)F)nc3cccnc32)CC1 was tested, and the survival was inactive: 76%.
In the case of CC(=O)Nc1ccc(-c2cn(CC(=O)NN)cn2)cc1, the survival is reported as inactive: 111%.
For COc1ccccc1N1CCN(c2ncccc2-c2nc(-c3ccc(Cl)cc3)no2)CC1, the survival was inactive: 66%.
With N#CC(C#N)=Cc1ccc(-c2ccc3c(c2)COC3=O)o1 the survival was inactive: 90%.
For CCc1ccc(C(=O)c2cn(CC(=O)Nc3ccc(OC)c(OC)c3)c3ccc(C)cc3c2=O)cc1, the survival was inactive: 63%.
Cc1cc(C)c(NC(=O)CSc2nc3nc(C)cc(C)n3n2)c(C)c1 was tested, and the survival was inactive: 141%.
With CCOc1cc(/C=N/NC(=O)C(OC)c2ccccc2)ccc1O (stereo unspecified) the survival was inactive: 91%.
For CCN(CC)c1cc(C)c2cc(NC(=O)c3ccccc3OC)ccc2n1, the survival was active: 7%.
With CCCCn1c(SCC(=O)NCCCOC)nc2c(sc3ccccc32)c1=O the survival was inactive: 128%.
For CCn1c(=O)c2sccc2n2c(CCCC(=O)N3CCN(c4cc(Cl)ccc4C)CC3)nnc12, the survival was inactive: 73%.
With Cc1ccc(NC(=O)/C=C/c2ccc(C)o2)c(C)c1 the survival was inactive: 46%.
Cc1cc(C)c2[nH]c(=O)c(CN(Cc3ccc(F)cc3)Cc3nnnn3CC3CCCO3)cc2c1 (stereo unspecified) was tested, and the survival was inactive: 91%.
For Cc1cccc(N2CCN(C(=O)c3cc4c(=O)oc5ccccc5c4s3)CC2)c1C, the survival was inactive: 66%.
With Cc1cc(C(F)F)n2nc(C(=O)Nc3c(C)cccc3C)nc2n1 the survival was inactive: 80%.
With CCOC(=O)c1ccc(CNS(=O)(=O)c2c(C)ccc3nsnc23)o1 the survival was inactive: 77%.
In the case of O=C(CCN1N=C(c2ccccc2)CCC1=O)NCCc1ccc(Cl)cc1, the survival is reported as inactive: 122%.
For COCCN1C(=O)c2[nH]nc(-c3ccccc3O)c2C1c1ccc(Cl)c(Cl)c1 (stereo unspecified), the survival was active: 3%.
For CCCC1=Nc2cc(C(=O)NC(C)c3ccccc3)ccc2Sc2ccc(C)cc21 (stereo unspecified), the survival was inactive: 66%.
Cc1nn(C(=O)c2c(F)cccc2F)c(C)c1S(=O)(=O)N1CCOCC1 was tested, and the survival was inactive: 84%.
In the case of COc1ccc(CCNC(=O)c2ccc3c(c2)N(Cc2ccccc2F)C(=O)c2ccccc2S3(=O)=O)cc1OC, the survival is reported as inactive: 106%.
For Cc1ccc(CN(Cc2ccco2)C(=O)COc2cc(C)c(Cl)c(C)c2)cc1, the survival was inactive: 58%.
In the case of O=C(NCCc1ccccc1)c1cc(S(=O)(=O)N2CCCCC2)c[nH]1, the survival is reported as inactive: 69%.
With CCOC(=O)c1cnc2c(ccc3ccccc32)c1Nc1cccc(OC)c1 the survival was active: 29%.
In the case of CCN(CC)c1nc2n(c(=O)n1)CCO2, the survival is reported as inactive: 98%.
COc1ccc(CCNc2ncnc3c2cnn3-c2ccc(C)cc2)cc1 was tested, and the survival was inactive: 81%.
For Fc1ccc(CN2CCc3nc(Nc4ccccc4)ncc3C2)cc1F, the survival was inactive: 84%.
With CN1C(=O)c2ccccc2Sc2ccc(NC(=O)COc3ccc(F)cc3)cc21 the survival was inactive: 87%.
Cc1ccccc1C(=O)Nc1nnc(S(=O)(=O)N2c3ccccc3CC2C)s1 (stereo unspecified) was tested, and the survival was active: 20%.
In the case of COc1ccc(C2C(=O)N(C3CCCCCC3)CC(=O)N2Cc2ccc(C)cc2)cc1OC (stereo unspecified), the survival is reported as inactive: 73%.
For Cn1c(SCc2ccccc2)nnc1-c1ccccc1, the survival was inactive: 93%.
For Cc1nn(-c2ccccc2)c2nc(C3CC3)cc(C(=O)Nc3ccccc3F)c12, the survival was inactive: 102%.
In the case of O=C(NCc1ccco1)c1ccc2c(c1)N(Cc1cccc(Cl)c1)C(=O)c1ccccc1S2(=O)=O, the survival is reported as active: 46%.
In the case of Cc1ccc(CNC(=O)CSc2cc(C)[nH]c(=O)n2)cc1, the survival is reported as inactive: 83%.
In the case of Oc1c(C(c2ccccc2Cl)N2CCCC2)sc2nc(-c3ccco3)nn12 (stereo unspecified), the survival is reported as inactive: 83%.
In the case of CCOc1ccc(N(CC(=O)NCc2ccccc2Cl)S(=O)(=O)c2c(C)[nH]c(=O)[nH]c2=O)cc1, the survival is reported as inactive: 66%.
With COc1ccc(S(=O)(=O)N2CCC(Oc3ccc(-n4cnnn4)cc3)CC2)cc1OC the survival was inactive: 77%.
For CCOc1ccc(C(=O)c2cn(Cc3ccccc3OC)c3ccc(F)cc3c2=O)cc1, the survival was inactive: 94%.
